# A collection of fitness landscapes (doi:10.1038/s41467-024-54723-y)
# In all, about 18,000 sequences were measured (“TetR repression strength (sort-seq, GFP reporter)”: median about 0.23, highest 2% from about 0.68 on). Some of the results follow.
# Target: TetR (class B, Tn10) (UniProt P04483)
# Test: TetR repression strength (sort-seq, GFP reporter) (relative to tetO2 = 1); higher = stronger repression
# Conditions: E. coli
# Summary of the method: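 E. coli SIG10-MAX carried a low-copy plasmid library with eight randomized operator positions between a constitutive promoter and sfGFP, with TetR constitutively expressed. Cells grew 5 h at 37 °C in LB with 50 µg/mL chloramphenicol, then 10^6 cells were FACS-sorted into 13 fluorescence bins, each Illumina-sequenced. Repression strength is the top bin index plus one minus the read-weighted mean bin, divided by the wild-type operator value. Three independent transformations; variants with ≥30 reads in all replicates and CV ≤0.5 were averaged.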
# UniProt P04483, sequence (P04483 whole entry): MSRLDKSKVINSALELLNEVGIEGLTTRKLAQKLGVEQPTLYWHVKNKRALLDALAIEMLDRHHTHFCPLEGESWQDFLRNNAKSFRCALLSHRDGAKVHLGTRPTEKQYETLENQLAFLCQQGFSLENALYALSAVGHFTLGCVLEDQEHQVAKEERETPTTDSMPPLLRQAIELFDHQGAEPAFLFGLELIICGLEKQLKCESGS
row,Sequence,TetR repression strength
1,TCCCTGCTAGTCGGAGAGA,0.421
2,TCCCATTCAGTCGGGGAGA,0.598
3,TCCCCATCAGTGTGTGAGA,0.116
4,TCCCTGTCAGTCATAGAGA,0.617
5,TCCCATTTAGTTTATGAGA,0.0199
6,TCCCGCGGAGTTCGCGAGA,0.117
7,TCCCGCTGAGTTCGGGAGA,0.202
8,TCCCACCTAGTAGGCGAGA,0.152
9,TCCCGCAAAGTTGTTGAGA,0.161
10,TCCCGAAGAGTGAGCGAGA,0.381
11,TCCCCACGAGTCCATGAGA,0.442
12,TCCCTGAAAGTGTGCGAGA,0.316
13,TCCCCGCTAGTGAGCGAGA,0.0751
14,TCCCTTCCAGTGCAGGAGA,0.281
15,TCCCTAACAGTACCAGAGA,0.243
16,TCCCCATAAGTACAAGAGA,0.446
17,TCCCGAGCAGTACTCGAGA,0.028
18,TCCCCCAGAGTGCGAGAGA,0.329
19,TCCCGGACAGTCACTGAGA,0.203
20,TCCCAATGAGTCGAAGAGA,0.29
21,TCCCATCTAGTGTAGGAGA,0.398
22,TCCCCTCAAGTTAGGGAGA,0.304
23,TCCCGTGTAGTGTGGGAGA,0.227
24,TCCCGCTGAGTAGGTGAGA,0.0602
25,TCCCGCCCAGTAGATGAGA,0.279
26,TCCCTTCTAGTCGATGAGA,0.334

row,Sequence,TetR repression strength
1,TCCCAACAAGTCGCGGAGA,0.0424
2,TCCCCGAAAGTATAAGAGA,0.409
3,TCCCCGACAGTCTAGGAGA,0.215
4,TCCCCTACAGTTTTTGAGA,0.505
5,TCCCAGCCAGTGTGGGAGA,0.225
6,TCCCGGTGAGTGTAAGAGA,0.268
7,TCCCAAACAGTGGTGGAGA,0.231
8,TCCCGGAAAGTTCATGAGA,0.258
9,TCCCTGGTAGTTAGTGAGA,0.141
10,TCCCGTTGAGTAGGTGAGA,0.0797
11,TCCCTCGGAGTGAGCGAGA,0.0259
12,TCCCCTTGAGTTTAAGAGA,0.274
13,TCCCGAGGAGTGTTCGAGA,0.224
14,TCCCTGGGAGTTAAGGAGA,0.144
15,TCCCCGTTAGTCATGGAGA,0.166
16,TCCCTTAGAGTCCTGGAGA,0.0777
17,TCCCTCACAGTGATAGAGA,0.513
18,TCCCTAACAGTTAGGGAGA,0.121
19,TCCCATCCAGTATCAGAGA,0.166
20,TCCCTATAAGTCAGCGAGA,0.32
21,TCCCTACGAGTTGTCGAGA,0.314
22,TCCCTCCAAGTTCTTGAGA,0.464
23,TCCCAGGTAGTACTAGAGA,0.299
24,TCCCGTCGAGTGCAAGAGA,0.433
25,TCCCTGGTAGTTCAGGAGA,0.18
26,TCCCGTCAAGTGTTTGAGA,0.394

row,Sequence,TetR repression strength
1,TCCCGGCTAGTAGTTGAGA,0.295
2,TCCCTCGCAGTGGGCGAGA,0.256
3,TCCCGTTCAGTTAGGGAGA,0.248
4,TCCCTACTAGTCAGAGAGA,0.179
5,TCCCCTATAGTTAGCGAGA,0.122
6,TCCCAGTGAGTGAGAGAGA,0.451
7,TCCCCTGGAGTGTTTGAGA,0.298
8,TCCCTGGGAGTGGATGAGA,0.162
9,TCCCGACGAGTGCACGAGA,0.17
10,TCCCGTGTAGTACTGGAGA,0.299
11,TCCCTTAGAGTGGCGGAGA,0.198
12,TCCCGCTCAGTGCGTGAGA,0.238
13,TCCCGGCTAGTACGGGAGA,0.244
14,TCCCCTGGAGTCGAAGAGA,0.292
15,TCCCACTGAGTAATTGAGA,0.415
16,TCCCAGGTAGTGAAGGAGA,0.478
17,TCCCTAGTAGTTGCGGAGA,0.322
18,TCCCGAACAGTAGATGAGA,0.263
19,TCCCTGTGAGTACCCGAGA,0.152
20,TCCCCCTGAGTGGAAGAGA,0.123
21,TCCCGTGAAGTGTGGGAGA,0.181
22,TCCCGAGGAGTAACGGAGA,0.192
23,TCCCGCGTAGTTTGGGAGA,0.405
24,TCCCTTCTAGTAGGGGAGA,0.424
25,TCCCTCTTAGTCGTTGAGA,0.269
26,TCCCCGCTAGTCATGGAGA,0.303

row,Sequence,TetR repression strength
1,TCCCCTGGAGTGTGGGAGA,0.214
2,TCCCCAACAGTGTGCGAGA,0.196
3,TCCCGGCGAGTGGTGGAGA,0.186
4,TCCCGTATAGTGTCCGAGA,0.0863
5,TCCCGTTTAGTGCCGGAGA,0.0842
6,TCCCTGACAGTCATGGAGA,0.119
7,TCCCACGAAGTAATAGAGA,0.379
8,TCCCGGCAAGTCGAAGAGA,0.193
9,TCCCACCAAGTTGACGAGA,0.306
10,TCCCCCCGAGTGCATGAGA,0.565
11,TCCCTACAAGTTAGTGAGA,0.14
12,TCCCTACGAGTCGAGGAGA,0.394
13,TCCCGCATAGTAGAAGAGA,0.119
14,TCCCTAGAAGTCTAGGAGA,0.252
15,TCCCGAGTAGTGCGAGAGA,0.43
16,TCCCATCGAGTTTGTGAGA,0.426
17,TCCCCCCGAGTTAGGGAGA,0.37
18,TCCCTCTAAGTTATCGAGA,0.311
19,TCCCGTTTAGTAGCGGAGA,0.253
20,TCCCTAACAGTCCACGAGA,0.205
21,TCCCCTGGAGTAACGGAGA,0.0466
22,TCCCGTGAAGTCGGGGAGA,0.215
23,TCCCACTTAGTGAGGGAGA,0.0283
24,TCCCTGATAGTCTTGGAGA,0.231
